Out of some 52,000 compounds screened, about 4,300 (8.3%) were called active. Cut-off read from the data, not from the text of the source: active = survival mostly below about 52% (no sharp cut-off); inactive = mostly above about 56%. The list shows a part of the results.
tested on: DeltatarO mutant; assay: S. aureus survival, RN4220 and DeltatarO strains – OD600, teichoic acid synthesis inhibitors, primary screen (AID 463173); conditions: S. aureus RN4220 wild type/DeltatarO growth, OD600, 18 h, active compounds read low, screened at 18.75 µg/mL (by protocol)

SMILES | survival
Cc1c(C(=O)NN)c2cc(O)ccc2n1C | inactive: 78%
Cc1cc(C)n(-c2nc3ccccc3nc2Nc2cccc(C(F)(F)F)c2)n1 | inactive: 75%
COc1ccc(C2C(C(=O)Nc3ccccc3)=C(C)Nc3nc(-c4ccccc4)nn32)cc1OC (configuration not stated) | inactive: 85%
COc1ccc(OC)c(-c2nc(Nc3ccccc3C)sc2CC(=O)O)c1 | inactive: 89%
CCOC(=O)c1ccccc1NC(=O)CSc1ccc(-c2sc(-c3ccccc3)nc2C)nn1 | inactive: 34%
COc1ccc(CNc2nc3c(S(=O)(=O)c4ccccc4)nnn3c3ccc(Cl)cc23)cc1 | inactive: 73%
CCOc1ccc(Nc2oc(/C=C/c3ccc(F)cc3)nc2C#N)cc1 | inactive: 102%
Cc1ccc(NC(=O)C(=O)NCC(c2cccnc2)N2CCN(C)CC2)cc1C (configuration not stated) | inactive: 79%
COc1ccc(NC(=O)c2oc3c(c2C)-c2nn(Cc4c(F)cccc4Cl)cc2CC3)c(OC)c1 | inactive: 72%
Fc1ccc(-c2cc(-c3nc(-c4cccc(Cl)c4)no3)[nH]n2)cc1 | inactive: 88%
COc1cc(OC)c(OC)cc1CN1CCc2nc(N3CCN(c4ncccn4)CC3)ncc2C1 | inactive: 96%
CC1CCC(NC(=O)c2ccc3c(c2)N(Cc2cccc(F)c2)C(=O)c2ccccc2S3)CC1 (configuration not stated) | inactive: 120%
Cc1ccc(C)c(NC(=O)C(C)n2c(=O)cc(C(F)(F)F)c3c(C)nn(C)c32)c1 (configuration not stated) | inactive: 89%
CCc1nnc(SCc2ccc(F)cc2Cl)c2cc3sccc3n12 | inactive: 80%
CCN1CCN(C(=O)c2ccc3c(c2)N(Cc2cccc(Cl)c2)C(=O)c2ccccc2S3(=O)=O)CC1 | inactive: 102%
COc1ccc(-c2noc(C3CC(=O)N(c4ccc(C)c(F)c4)C3)n2)c(OC)c1 (configuration not stated) | inactive: 107%
COc1ccccc1CNC(=O)CSc1ncc2c(n1)-c1ccccc1N(Cc1ccc(C)cc1)S2(=O)=O | inactive: 64%
CCc1ccc(CNC(=O)c2ccc3c(c2)nc2n3CCOC2)cc1 | inactive: 115%
CC(C)CCNC(=O)CN1C(=O)COc2ccc(S(=O)(=O)N3CCOCC3)cc21 | inactive: 90%

SMILES | survival
COc1ccc(NC(=O)C(=O)NCCc2ccccc2)cc1OC | inactive: 53%
COc1cccc(C(=O)Nc2ccccc2C(=O)OCc2cc(=O)n3nc(C)sc3n2)c1 | inactive: 85%
CC(C)c1ccc(NC(=O)C2CCCN(S(=O)(=O)c3ccc(Br)s3)C2)cc1 (configuration not stated) | inactive: 66%
CCOC(=O)c1cccc(NC(=O)c2cc3c(Cl)nc4ccc(C)cc4c3s2)c1 | inactive: 105%
COc1ccc(-n2cc(-c3ccccc3)c3c(SC(C)C(C)=O)ncnc32)cc1 (configuration not stated) | inactive: 54%
CCc1ccc(NS(=O)(=O)c2ccc3[nH]cc(C(=O)NC4CCCC4)c(=O)c3c2)cc1 | active: 8%
CN1CCN(C(CNC(=O)C(=O)Nc2ccc(F)cc2)c2cccnc2)CC1 (configuration not stated) | inactive: 81%
Cc1cc2oc(C(=O)Nc3nc(-c4ccccc4)ns3)c(C)c2cc1Cl | active: 45%
Cc1ccc(NC(=O)CN2C(=O)CCc3cc(S(=O)(=O)N4CCOCC4)ccc32)c(C)c1 | inactive: 79%
CCC(CC)C(=O)N1CCc2cc(OC)c(OC)cc2C1COc1ccccc1OC (configuration not stated) | inactive: 80%
CC(=O)c1ccc(NS(=O)(=O)c2ccc3[nH]c4c(c3c2)CCCCCC4)cc1 | inactive: 84%
Cc1ccc(C)c(Cn2nnc(C(=O)NCc3ccccc3)c2N)c1 | inactive: 78%
CCC(=O)N1CCc2cc(S(=O)(=O)CCC(=O)N3CCN(c4ccccc4F)CC3)ccc21 | inactive: 84%
Cc1ccc(CNC(=O)c2cc3sccc3n2Cc2ccc(F)cc2)cc1 | inactive: 83%
CCOc1ccc(-c2cnc(NCc3cccc(Cl)c3)n2C)cc1 | active: 30%
COc1ccc(C(=O)CCC(=O)Nc2cccc(C(C)=O)c2)cc1 | inactive: 96%
Cc1ccc(Cn2c(=O)n(Cc3ccc(Cl)cc3)c(=O)c3cccnc32)cc1 | inactive: 78%
CCOc1ccc(NC(=O)CSc2nnc(NC(=O)Nc3ccccc3)s2)cc1 | inactive: 79%
CCC1CCCCN1C(=O)CSc1nnc2c3ccccc3n(CC(=O)O)c2n1 (configuration not stated) | inactive: 71%

SMILES | survival
Cc1nc2cc(-c3cccc(F)c3)nn2c(C)c1CCC(=O)NC1CCCCC1 | inactive: 95%
CCOc1ccc(-c2nonc2NC(=O)COc2ccc(C)c(C)c2)cc1OCC | inactive: 111%
O=C(c1ccc2c(c1)N(Cc1cccc(Cl)c1)C(=O)c1ccccc1S2(=O)=O)N1CCN(c2cccc(C(F)(F)F)c2)CC1 | inactive: 98%
COc1ccc(-c2nn(C)c3sc(C(=O)N4CCN(c5cc(Cl)ccc5C)CC4)cc23)cc1OC | inactive: 103%
Cn1c(NN)nc2c(c1=O)C1(CCCC1)Cc1ccccc1-2 | inactive: 59%
CCc1cc2c(=O)n(-c3ccccc3)c(SCC(=O)c3cccs3)nc2s1 | inactive: 101%
CC1CCc2c(sc(NC(=O)c3ccccc3)c2C(=O)Nc2ccccc2)C1 (configuration not stated) | active: 42%
COc1ccc(OC)c(CNc2ncnc3onc(-c4ccc(Cl)cc4)c23)c1 | inactive: 53%
CCOC(=O)CSc1nc2ccc(NC(=O)COc3ccccc3)cc2s1 | inactive: 93%
Cc1cccc(CSc2cn(CC(=O)N3CCCCCC3)c3ccccc23)c1 | inactive: 82%
Cc1ccccc1-n1nc(CO)c(C(=O)NCCc2ccccc2)n1 | inactive: 86%
COc1cccc(NC(=O)C(=O)NCC(c2cccnc2)N2CCN(c3ccccc3)CC2)c1 (configuration not stated) | inactive: 97%
COc1ccc(Cl)cc1NC(=O)C1CCN(c2ncnc3c2nc2n3CCCCC2)CC1 | inactive: 89%
CCN(CC)c1ccc(NC(=O)c2cnn3c(C(F)F)cc(-c4ccccc4)nc23)cc1 | active: 59%
O=C(CCC(=O)N1Cc2ccccc2Oc2ncccc21)NCc1ccccc1Cl | inactive: 74%
Cc1cc(C)n(CCCC(=O)NCCn2nccc2C)n1 | inactive: 76%
COc1ccc(C(c2c(O)cc(C)n(Cc3ccco3)c2=O)N2CCN(c3ccccc3)CC2)cc1 (configuration not stated) | inactive: 88%
N#CC1=C(S)NC(=O)C(C#N)C12CCCCC2 (configuration not stated) | inactive: 85%
CCCCN(C)CCNC(=O)C1CCN(c2nc3ccc(CC)cc3s2)CC1 | inactive: 45%

Source: PubChem BioAssay AID463173 (ICCB-Longwood Screening Facility, Harvard Medical School, 2010)
